# In PubChem BioAssay AID1671193 (National Center for Advancing Translational Sciences (NCATS), 2021):
# The whole screen tested about 150,000 compounds, of which about 180 (0.12%) were called active. The inconclusive results got no clear call from the source; some entries with a clear call stand among them for comparison. Calls follow the shape of the dose curve; as a rule, active = well fitted cell-killing curve with a large enough effect; inconclusive = small, poorly fitted or top-dose-only effect, or effect the other way; inactive = flat fitted curve, though single readings scatter. Potencies beside an inconclusive call are fits to weak or partial responses and may not hold up.
# Test: GF-AFC viability counterscreen for inhibitors of alpha-synuclein gene (SNCA) expression; also: nearly all actives have a fitted effect of over 30% in size
# Conditions: HEK-293-SNCA-luc viability, GF-AFC fluorescence, 24 h; series mostly up to 57.1 µM
# Method in brief: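 Cytotoxicity counterscreen: after 24 h compound treatment of genome-edited SNCA-luciferase HEK-293 cells, live-cell protease substrate GF-AFC read by fluorescence after 30 min; activity scaled between DMSO (0%) and medium-only (-100%), curves Hill-fitted.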
# Potency is read from the fitted curve at half-maximal effect; tags tell the direction and shape of the fitted curve.
row,Compound,Potency
1,COc1cccc(N2C(=O)NC(=NC3CCCC3)C23CCCN(CC2CCCCC2)C3)c1 (stereo unspecified),"inconclusive: 39.8 µM [cytotoxic, single point]"
2,COC[C@@H]1CN(c2cnccn2)C[C@H]1C(=O)NCc1ccccc1F,"inconclusive: 11.2 µM [cytotoxic, partial curve]"
3,CCc1noc(Cc2c(C)nn(-c3ccccc3)c2C)n1,inactive
4,CC1=C[C@@H](CN2CCN(c3ncccn3)CC2)[C@H](C(C)C)C[C@H]1Cc1nnc(COc2ccc(F)cc2)o1,"inconclusive: 25.1 µM [cytotoxic, single point]"
5,O=C(c1ccc(CSc2nc3ccncc3n2Cc2ccc(F)cc2)cc1)N1CCCCCC1,inactive
6,O=C(NC1CCN(C(=O)N2CC3CC(C2)[C@H]2CCCC(=O)N2C3)CC1)c1ccccn1 (stereo partly specified),inactive
7,O=C(NC1CCCc2c1[nH]c1ccccc21)c1ccco1 (stereo unspecified),inactive
8,COc1ccc(-c2noc(C(=O)O)c2[C@@H](C)NS(=O)(=O)c2ccccc2)cc1,inactive
9,O=C(c1nc2cccnc2n(Cc2ccccc2)c1=O)N1CCN(c2ncccn2)CC1,inactive
10,COc1ccc(-c2[nH]nc3ncc(C(=O)Nc4ccccc4)nc23)c(C)c1,"inconclusive: 56.2 µM [rising, single point]"
11,Cn1ccnc1CN1C(=O)CO[C@H](c2ccc(NC(=O)c3ccc(C(F)(F)F)cc3)cc2)[C@H]1CO,inactive
12,COc1ccc(C(=O)NC(C(=O)N2CCCC2)C2CCN(C(=O)c3ccccc3)CC2)cc1 (stereo unspecified),"inconclusive: 44.7 µM [cytotoxic, single point]"
13,CCCc1cc(NCc2cn3c(n2)SCC3)n2nccc2n1,inactive
14,CCC(=O)Nc1ccc(CC)cc1-c1nc2ccccc2n(CC(=O)Nc2cccc(Cl)c2)c1=O,"inconclusive: 25.1 µM [cytotoxic, partial curve, poor fit]"
15,COc1ccc(CCNC(=O)CCCCn2c(=O)c3ccccc3n(Cc3ccccc3C)c2=O)cc1OC,"inconclusive: 15.8 µM [cytotoxic, partial curve, poor fit]"
16,COc1ccccc1-c1nc(C(=O)NCc2ccc(F)cc2)n2ccccc12,inactive
17,CC[C@H](C)[C@H](N)C(=O)N1CCC2(CCC(=O)N(Cc3ccccc3)C2)CC1,"inconclusive: 31.6 µM [cytotoxic, partial curve, poor fit]"
18,CCOc1ccc(C(=O)Nc2c(C(=O)c3ccc(OC)cc3)oc3ccccc23)cc1,"inconclusive: 28.2 µM [rising, single point]"
19,CCCSCCCNC(=O)C1CCCN(c2nn3cc(-c4ccc(OC)cc4)nc3s2)C1 (stereo unspecified),"inconclusive: 39.8 µM [cytotoxic, single point]"
20,Cc1ccc(-c2ccc(CN)cc2)c(C)c1,"inconclusive: 56.2 µM [cytotoxic, single point]"
21,O=C(c1nnn2c1COC(c1ccc(Cl)cc1)C2)N1CCN(C(=O)C2(c3ccccc3)CC2)CC1 (stereo unspecified),inactive

row,Compound,Potency
1,O=C(CCC1N=C2c3ccccc3N=C(SCc3ccc(Cl)cc3)N2C1=O)NCCc1ccccc1 (stereo unspecified),"inconclusive: 39.8 µM [cytotoxic, single point]"
2,O=C(N[C@H]1CO[C@H]2[C@@H]1OC[C@@H]2n1cc(-c2ccccc2)nn1)c1ccc(C(F)(F)F)cc1,inactive
3,Cc1cccc(OCC(=O)NCCn2cccc2-c2nc(-c3ccc4c(c3)OCO4)no2)c1,"inconclusive: 31.6 µM [cytotoxic, single point]"
4,COc1ccc(-c2nnc([C@H]3CCN(C(=O)C4CCCCC4)C3)o2)cc1,"inconclusive: 50.1 µM [cytotoxic, partial curve, poor fit]"
5,COc1ccc(C(C)NC(=O)c2ccc(Cn3ccn4nc5c(c4c3=O)CCCC5)cc2)cc1 (stereo unspecified),"inconclusive: 28.2 µM [cytotoxic, single point]"
6,CCCN(CCC)C(=O)Cn1c(=O)n(-c2ccccc2)c(=O)c2c3c(sc21)CCCC3,"inconclusive: 0.251 µM [cytotoxic, full curve, poor fit]"
7,CCCN1CCC2(CCN([S+](=O)([O-])c3cccs3)CC2)Oc2ccccc21,"inconclusive: 10 µM [cytotoxic, partial curve, poor fit]"
8,COc1ccc(C(=O)NC2CCN(c3cc(-c4cccs4)[nH]n3)C2)cc1OC (stereo unspecified),inactive
9,Cc1c(Cl)cccc1NC(=O)c1noc2c1CCCC2,"inconclusive: 28.2 µM [cytotoxic, single point]"
10,CC1CCN(C(=O)CSc2c(C(C)C)cnc3c2c(=O)n(C)c(=O)n3C)CC1,"inconclusive: 0.178 µM [rising, full curve, poor fit]"
11,Cc1ccc(O)c(NC(=O)c2ccc(Br)c(S(=O)(=O)N3CCCCC3)c2)c1,"inconclusive: 22.4 µM [cytotoxic, single point]"
12,Cc1ccc(C(=O)Nc2c(-c3ccccc3)nc3ccccn23)cc1,"inconclusive: 10 µM [cytotoxic, partial curve, poor fit]"
13,O=C(C[C@@H]1O[C@H](CNS(=O)(=O)c2ccccc2)[C@@H](O)[C@H]1O)NCCN1CCOCC1,inactive
14,CN1CCN(c2ncc3nc(-c4ccc(F)cc4)c(=O)n(C4CC4)c3n2)CC1,"inconclusive: 14.1 µM [rising, partial curve, poor fit]"
15,O=C1CC(c2noc(-c3ccccc3)n2)CN1c1ccc(Cl)cc1 (stereo unspecified),inactive
16,OC[C@H]1O[C@@H](OCc2ccccc2)[C@H](O)[C@@H](O)[C@@H]1O,"inconclusive: 0.0075 µM [rising, full curve, poor fit]"
17,C1=C(c2nc(-c3cncnc3)cc3c2ccn3Cc2cccnc2)CCOC1,inactive
18,O=C(CSc1nc2c(oc3ccccc32)c(=O)n1-c1ccccc1)Nc1ccccc1F,"inconclusive: 1.41 µM [cytotoxic, partial curve, poor fit]"
19,CN(C)CC1(O)CCCN(Cc2ccc(Oc3ccc(Cl)cc3)cc2)C1 (stereo unspecified),"inconclusive: 31.6 µM [cytotoxic, single point]"
20,CCOC(=O)c1ccc(N2C(=O)c3n[nH]c(-c4ccco4)c3C2c2ccc(OCC)cc2)cc1 (stereo unspecified),"inconclusive: 31.6 µM [cytotoxic, single point]"
